About 64,000 (15%) of roughly 420,000 compounds were called active. Inconclusive results, whose numbers are uncertain, are shown with a selection of clear calls. The call rests on the fitted dose curve; in most records, active means well fitted inhibition curve with a large enough effect; inconclusive means small, poorly fitted or top-dose-only effect; inactive means flat fitted curve, though single readings scatter. No potency is given beside an inconclusive call; the fits are too rough.
Test: qHTS for Inhibitors of human tyrosyl-DNA phosphodiesterase 1 (TDP1): qHTS in cells in absence of CPT; further: nearly all actives have a fitted effect of over 55% in size
Details: DT40 Tdp1-/- hTDP1 cells, no CPT, ATP luminescence, 48 h; activity change, negative = growth inhibition: at 46.2 µM (top of the series) unless noted
Summary of the method: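 Chicken DT40 Tdp1-/- cells complemented with human TDP1, screened without camptothecin (DMSO vehicle only), 400 cells/well. Compounds pin-transferred, cells incubated at 37 °C for at least 48 hr. Growth read as ATP-dependent luminescence (CellTiter-Glo, 30 min at RT).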
On the % scale 0 is the no-effect control and ±100 the full control effect; potency means the concentration at half of the fitted maximal effect; tags describe the fitted curve by direction and shape.

Compound	Potency	activity change, negative = growth inhibition
CCOc1ccc2nc(SC3CC(=O)N(c4ccc(OC)cc4OC)C3=O)sc2c1 (centres undefined)	active: 3.26 µM	–
O=C(/C=C/c1ccco1)Nc1nnc(-c2ccco2)s1	inconclusive [inhibitor, full curve]	–
C=CCn1c(CSc2ccccc2[N+](=O)[O-])n[nH]c1=S	–	inactive: -19.6%
Cc1cccc(NC2=C(C#N)C(=O)NC3(CCCC3)S2)c1	inconclusive [inhibitor, partial curve]	–
CCCNC(=O)C1CN(C(=O)c2nn(Cc3ccccc3)c(=O)c3ccccc23)c2ccccc2O1 (centres undefined)	inconclusive [inhibitor, single point]	–
O=C(NC1CC1)c1ccc(CN(c2ccccc2)S(=O)(=O)c2ccccc2)cc1	–	inactive: -18.7%
O=C(Nc1ccc(O)cc1)c1ccc(NC(=O)c2cccs2)cc1	inconclusive [inhibitor, single point]	–
C=CCc1cc(CN2CC(C)OC(C)C2)c(O)c(OC)c1 (centres undefined)	inconclusive [inhibitor, partial curve, poor fit]	–
CCOc1ccc(/C(O)=C2/C(=O)C(=O)N(CCCN3CCOCC3)C2c2ccc(C)cc2)cc1C (centres undefined)	–	inactive: 13.4%
O=C(Nc1cccc(Cl)c1Cl)c1cc(S(=O)(=O)N2CCC3(CC2)OCCO3)ccc1F	active: 23.1 µM	–
CCc1ccc(Nc2nn3c(=O)c4cc5c(cc4nc3s2)OCO5)cc1	–	inactive: -10.1%
COC(=O)c1cc2oc3ccccc3c2n1Cc1nc(-c2cccc(Cl)c2)oc1C	–	inactive: -4.19%
Cc1ccccc1N1CCN(C2=NC(=O)/C(=C/c3cn[nH]c3-c3ccccc3)S2)CC1	inconclusive [inhibitor, partial curve]	–
COC(=O)c1ccc(CSc2nc3ccccc3c(=O)n2N)cc1	inconclusive [inhibitor, single point]	–
CCOC(=O)c1c(N2C(=O)Nc3ccccc3N2O)n[nH]c1-c1cccc(OC)c1	–	inactive: 18.5%
O=C(NCCN1CCN(c2ccccc2F)CC1)C1COc2ccccc2C1 (centres undefined)	inconclusive [inhibitor, single point]	–
Cc1c(C(=O)NC2CCCCC2)oc2ccccc12	inconclusive [inhibitor, single point]	–
CC(Sc1ccc2ccccc2c1)C(=O)NC(N)=O (centres undefined)	–	inactive: -27.9%
CCc1nnc(NC(=O)CSc2nnc(COc3ccc(C#N)cc3)n2-c2ccccc2)s1	–	inactive: -9.91%
O=C(CC[C@H]1O[C@@H](n2cnc3c(NC(=O)c4ccccc4)ncnc32)[C@H](O)[C@@H]1O)NCc1ccccn1	–	inactive: 0.703%
COC(=O)c1ccc2nc(NC(=O)CN3C(=O)CCC3=O)sc2c1	inconclusive [inhibitor, single point]	–
CCOC(=O)c1c(C)[nH]c(C2=NNC(=NC(C)COC)SC2)c1C (centres undefined)	inconclusive [inhibitor, single point]	–

Compound	Potency	activity change, negative = growth inhibition
CC1(C(=O)Nc2cccc3cccnc23)CCN1Cc1cccc2c1OCO2 (centres undefined)	active: 14.6 µM	–
COc1ccc(-c2cccc(NS(=O)(=O)c3cc([N+](=O)[O-])ccc3C)c2)nn1	–	inactive: -25.4%
O=C(NCCc1ccccn1)c1cc(-c2ccccc2Cl)nc2ccccc12	active: 18.4 µM	–
CC1(C(=O)NCc2ccncc2)Cc2c(-c3cccc(C(F)(F)F)c3)ccnc2O1 (centres undefined)	inconclusive [inhibitor, single point]	–
O=c1[nH]c(SCc2ccc(Cl)cc2)nc2[nH]ncc12	inconclusive [inhibitor, single point]	–
CC(=O)Nc1nonc1-c1nnc(SCc2ccccc2C)n1C	inconclusive [inhibitor, single point]	–
COc1ccc(CNC(=O)c2ccc3c(c2)N(Cc2ccccc2F)C(=O)c2ccccc2S3=O)cc1 (centres undefined)	inconclusive [inhibitor, single point]	–
CCCCNC(=O)C1c2ccccc2OCC(=O)N1CCc1ccccc1 (centres undefined)	inconclusive [inhibitor, single point]	–
O=C(c1ccc(OC2CCN(C/C=C/c3ccc(F)cc3)CC2)cc1)N1CCCC1	inconclusive [inhibitor, single point]	–
CCc1ccccc1NC(=O)Cc1ccc(-n2c(C)nc3cccnc32)cc1	inconclusive [inhibitor, single point]	–
O=C(COc1cccc2c1CCNC2=O)Nc1cccc(F)c1	–	inconclusive: -35.7% [inhibitor]
COc1cccc(-c2ccc3c(N)c(C(=O)Nc4ccc(Cl)cc4F)sc3n2)c1	inconclusive [inhibitor, single point]	–
O=C(CC1C(=O)NCCN1Cc1ccc(-c2ccccc2)cc1)NCC1CCOCC1 (centres undefined)	inconclusive [inhibitor, single point]	–
CCN(CC)C(=O)C1=C(C)N(CCC2=CCCCC2)C(=O)C(CC(=O)NC(c2ccccc2)c2ccccc2)C1 (centres undefined)	inconclusive [inhibitor, single point]	–
CC1(C)C(=O)Nc2ccccc2N1C(=O)COc1cc(Cl)ccc1Cl	inconclusive [inhibitor, single point]	–
Cc1nc(SC(C(N)=O)c2ccccc2)c(C#N)c(C)c1C (centres undefined)	inconclusive [inhibitor, single point]	–
CC(=O)Nc1ccc(C=NNC(=O)c2ccc(NS(=O)(=O)c3cccs3)cc2)cc1	–	inactive: 2.26%
Cc1ccc(Nc2nc(NCC3CC3)nc3ccsc23)c(C)c1	active: 5.8 µM	–
Cc1cccc(CSc2nc3cccnc3n2Cc2ccc(C(=O)NCc3cccs3)cc2)c1	inconclusive [inhibitor, single point]	–
Cc1cccc(NC(=O)CSCC(=O)Nc2cc(Cl)ccc2N2CCOCC2)c1	inconclusive [inhibitor, single point]	–
Cc1ccnc(NC(=O)c2ccc(S(=O)(=O)NCc3ccco3)cc2)c1	inconclusive [inhibitor, single point]	–
Cc1ccc(C)c(N2CCN(C(=O)c3cc4c(=O)n(Cc5cccnc5)ccc4nc3C)CC2)c1	inconclusive [inhibitor, single point]	–

Source: PubChem BioAssay AID686978 (National Center for Advancing Translational Sciences (NCATS), 2013)
